PubChem BioAssay AID485294 (National Center for Advancing Translational Sciences (NCATS), 2010)
The campaign covered roughly 370,000 compounds. About 150 (0.041%) were called active. Inconclusive means that the source gave no clear call. Such entries were picked first, then a sample of the others. Calls come from the whole dose curve; as a rule, active = well fitted inhibition curve with a large enough effect; inconclusive = small, poorly fitted or top-dose-only effect; inactive = flat fitted curve, though single readings scatter. No potency is given beside an inconclusive call; the fits are too rough.

What follows are molecules tested against Beta-lactamase (Escherichia coli (strain K12)) (UniProt P00811) (assay: qHTS Inhibitors of AmpC Beta-Lactamase (assay with detergent)). Conditions: AmpC hydrolysis of nitrocefin, absorbance 480 nm, 0.01% Triton; series mostly up to 114 µM.
Chain of UniProt P00811 (P00811 whole entry, looked up): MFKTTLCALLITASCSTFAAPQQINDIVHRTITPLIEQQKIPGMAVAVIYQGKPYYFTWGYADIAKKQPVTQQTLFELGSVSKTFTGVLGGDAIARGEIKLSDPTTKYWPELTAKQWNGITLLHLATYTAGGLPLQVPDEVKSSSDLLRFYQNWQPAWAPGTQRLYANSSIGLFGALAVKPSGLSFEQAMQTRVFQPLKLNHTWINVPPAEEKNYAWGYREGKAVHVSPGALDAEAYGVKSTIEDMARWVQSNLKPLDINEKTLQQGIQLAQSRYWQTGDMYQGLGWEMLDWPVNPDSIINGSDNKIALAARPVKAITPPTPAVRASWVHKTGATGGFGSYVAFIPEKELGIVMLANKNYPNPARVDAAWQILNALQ
In short: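 AmpC (5.3 nM in the dispensed reagent) in 20 mM phosphate pH 7.0 with 0.01% (detergent screen) or 0.0001% Triton X-100 was preincubated with compounds for 15 min at room temperature. Nitrocefin was then added from an 800 uM solution, and hydrolysis was followed at 480 nm.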
Note: nearly all actives have a fitted effect of over 25% in size.
Potency is the fitted concentration of half-maximal effect; tags give direction and shape of the fitted curve.

Row | SMILES | Potency
1 | Cc1cccc2sc(N(CCCN(C)C)C(=O)c3ccc(C(=O)c4ccccc4)cc3)nc12 | inactive
2 | CCn1c(=NC(=O)c2ccc(S(=O)(=O)N3CCCC3)cc2)sc2cc(Br)ccc21 | inactive
3 | CC(C)c1ccc(C2CC(c3ccc(Br)cc3)=NN2C(N)=S)cc1 (configuration not stated) | inconclusive [inhibitor, full curve, poor fit]
4 | COc1ccnc(Oc2ccc(C)cc2C)c1C#N | inconclusive [inhibitor, single point]
5 | COc1cc(C(=O)OC(C)CN2CCCC2)cc(OC)c1OC (configuration not stated) | inconclusive [inhibitor, partial curve]
6 | O=C(c1ccccc1)c1cccn1CC(=O)N1CCCCCC1 | inconclusive [inhibitor, full curve, poor fit]
7 | CCc1ccc(N2C(=O)CSC23C(=O)N(Cc2cccc(OC)c2)c2ccccc23)cc1 (configuration not stated) | inactive
8 | COc1cccc(CCC(=O)N2CCC(n3nccc3NC(=O)CC(C)C)CC2)c1 | inconclusive [inhibitor, full curve, poor fit]
9 | O=C(CN1CCC(NC(=O)c2cccc(F)c2)CC1)Nc1ccc(Br)cc1 | inactive
10 | COc1ccc(C(=O)c2ccc(OC)cc2O)c(O)c1 | inactive
11 | CCn1c(SCC(=O)N/N=C/C=C\c2ccco2)nc2ccccc21 | inconclusive [inhibitor, single point]
12 | COc1cccc(N2C(C(C)=O)=NN(c3ccccc3)C2c2ccc(N3CCOCC3)cc2)c1 (configuration not stated) | inconclusive [inhibitor, partial curve]
13 | CS(=O)(=O)N1CCN(C(=O)c2cc(-c3ccccc3)nc3ccccc23)CC1 | inconclusive [inhibitor, full curve, poor fit]
14 | COc1ccc(/C=C2\CCc3ccccc3C2=O)cc1OC | inactive
15 | Cc1cc(CNC(=O)C2CCC(=O)N(Cc3ccccc3F)C2)on1 (configuration not stated) | inconclusive [inhibitor, full curve, poor fit]
16 | CC(C)(C)c1csc(NC(=O)Cn2cnc3ccccc3c2=O)n1 | inconclusive [inhibitor, full curve, poor fit]
17 | COc1cc2c(C(=O)NCc3ccc(C)o3)cn(CC(C)C)c(=O)c2cc1OC | inconclusive [inhibitor, full curve, poor fit]
18 | CCN1CC(=O)Nc2cc(S(=O)(=O)N3CCOCC3)ccc21 | inconclusive [inhibitor, full curve, poor fit]
19 | O=S(=O)(NCCO)c1cccc2cccnc12 | inconclusive [inhibitor, full curve, poor fit]
20 | O=C(CCNC(=O)c1ccc([N+](=O)[O-])cc1)Nc1cc(Cl)ccc1N1CCOCC1 | inconclusive [inhibitor, full curve, poor fit]
21 | O=C(Nc1sc2c(c1C(=O)O)CCCC2)c1cccc(Cl)c1 | inactive
22 | Cc1ccc(CC2C(=O)N(c3ccc(C)cc3)C(=O)C2C)cc1 (configuration not stated) | inactive
23 | COCCNS(=O)(=O)c1cc(-c2nn(C)c(=O)c3ccccc23)ccc1C | inconclusive [inhibitor, full curve, poor fit]

Row | SMILES | Potency
24 | CCC1CCCCN1C(=O)CSc1nc2c([nH]c3ccccc32)c(=O)n1C (configuration not stated) | inconclusive [inhibitor, partial curve, poor fit]
25 | Cc1ccc(CSCCNC(=O)/C=C/c2ccccc2Cl)cc1 | inactive
26 | CC1(C)CC(=O)C2=C(C1)OC(N)=C(C#N)C21CCN(C(=O)OCc2ccccc2)CC1 | inconclusive [inhibitor, full curve, poor fit]
27 | Cc1ccc(S(=O)(=O)N2CCC(C(=O)N/N=C/c3cccnc3)CC2)cc1 | inconclusive [inhibitor, full curve]
28 | Cc1ccc(-c2csc(C3C(N)=NC(S)=C(C#N)C34CCCCC4)n2)cc1 (configuration not stated) | inactive
29 | Cc1ccc(C(=O)N2CCCC(c3ccccc3)=N2)cc1 | inconclusive [inhibitor, full curve]
30 | Cc1cc(C(=O)NNC(=O)c2ccc(NC(=O)CC#N)cc2)c(C)o1 | inconclusive [inhibitor, full curve]
31 | Cc1c(N=Cc2ccco2)c(=O)n(-c2ccccc2)n1C | inconclusive [inhibitor, full curve, poor fit]
32 | COc1ccc(C)cc1NC(=O)C(=O)c1cn(CC(=O)N2CCCC2)c2ccccc12 | inconclusive [inhibitor, partial curve, poor fit]
33 | O=C(NCSc1ccnc(SCNC(=O)c2ccccc2)n1)c1ccccc1 | inconclusive [inhibitor, full curve, poor fit]
34 | Cc1c(CC(=O)N2CCN(C(=O)C3COc4ccccc4O3)CC2)c(=O)oc2cc(O)ccc12 (configuration not stated) | inconclusive [inhibitor, full curve, poor fit]
35 | CCc1nnc(NC(=O)CSc2nnnn2-c2cccc(C(=O)OC)c2)s1 | inconclusive [inhibitor, full curve, poor fit]
36 | Cc1ccc(S(=O)(=O)NC(CC(C)C)C(=O)NCC(c2ccco2)N2CCCCC2)cc1 (configuration not stated) | inconclusive [inhibitor, full curve, poor fit]
37 | CCOC(CNC(=O)CN1C(=O)COc2ccc(S(=O)(=O)N3CCOCC3)cc21)OCC | inactive
38 | Brc1ccc(-c2nnc(-c3ccc4c(c3)OCO4)o2)o1 | inconclusive [inhibitor, single point]
39 | COc1ccc(-c2c(-c3cc(OC)c(OC)c(OC)c3)noc2C)cn1 | inconclusive [inhibitor, partial curve, poor fit]
40 | O=C(c1ccc(N2CCOCC2)nc1)N1CCCCC1 | inconclusive [inhibitor, full curve, poor fit]
41 | Cc1cccc(/C=N/NC(=O)C(C)Nc2cccc3ccccc23)n1 (configuration not stated) | inconclusive [inhibitor, single point]
42 | O=C(CSc1nnc(C2COc3ccccc3O2)o1)N1CCCCC1 (configuration not stated) | inactive
43 | CCC1CCCCN1Cc1nc2c(c(=O)n(C)c(=O)n2C)n1Cc1cccc2ccccc12 (configuration not stated) | inconclusive [inhibitor, partial curve]
44 | O=C(Cc1ccc(Br)cc1)Nc1cccc(S(=O)(=O)N2CCOCC2)c1 | inconclusive [inhibitor, single point]
45 | CSc1nc2c(c(=O)[nH]1)C(c1cccc(F)c1F)CC(=O)N2 (configuration not stated) | inactive
46 | Cc1ccc(-c2c(NC(=O)C(C)C)n(C)c3ccccc3c2=O)cc1 | inconclusive [inhibitor, full curve, poor fit]

Row | SMILES | Potency
47 | O=C(CNC(=O)c1ccccc1F)NC1CCN(Cc2ccccc2)CC1 | inconclusive [inhibitor, single point]
48 | O=C(O)/C=C/C(=O)c1c(-c2ccccc2)[nH]c2ccccc12 | inactive
49 | CC(=O)N1CCC(C(=O)NCCOc2cccc(C)c2)CC1 | inconclusive [inhibitor, full curve]
50 | COc1ccc(-n2nc(C(=O)N3CCCC(C)C3)c3c4ccccc4n(C)c3c2=O)cc1 (configuration not stated) | inactive
51 | CCc1cc(=O)oc2cc(C)c(CN3CCCC3)c(O)c12 | inconclusive [inhibitor, partial curve, poor fit]
52 | O=C(CCSCc1ccccc1Cl)NC1CCCC1 | inconclusive [inhibitor, full curve, poor fit]
53 | CC1SCC(=O)N(CC(=O)NCCc2ccccc2)C1=O (configuration not stated) | inconclusive [inhibitor, partial curve]
54 | c1ccc2c(c1)nnn2Cc1nnc2sc(-c3ccc4c(c3)OCCO4)nn12 | inconclusive [inhibitor, full curve]
55 | N=c1c(C(=O)NCCc2ccccc2)cc2c(=O)n3ccccc3nc2n1Cc1ccco1 | inconclusive [inhibitor, full curve, poor fit]
56 | Cc1ccc(NC(=O)Nc2cnccn2)cc1 | inconclusive [inhibitor, full curve, poor fit]
57 | O=C(Nc1nccs1)C1CC=CCC1 (configuration not stated) | inconclusive [inhibitor, full curve, poor fit]
58 | COCCN(C(=O)COC(=O)CSc1ccccc1)c1c(N)n(Cc2ccccc2)c(=O)[nH]c1=O | inconclusive [inhibitor, partial curve, poor fit]
59 | COc1ccc(NC(=S)NCc2cccnc2)cc1 | inactive
60 | CN1C2CCC1CC(=NO)C2 | inconclusive [inhibitor, full curve]
61 | Nc1nc2ccccc2n1C(=O)c1ccco1 | inconclusive [inhibitor, partial curve, poor fit]
62 | N#Cc1nc(-c2ccc(Cl)cc2)oc1NCc1ccco1 | inconclusive [inhibitor, full curve]
63 | O=c1cc2c(nn1Cc1ccccc1)-c1ccccc1CC2 | inconclusive [inhibitor, full curve, poor fit]
64 | Cc1cc(C)cc(NC(=O)Cn2cc(S(=O)(=O)NC(C)(C)C)c(S(=O)(=O)NC(C)(C)C)c2)c1 | inactive
65 | O=C(NCCn1cc(SCc2ccccc2Cl)c2ccccc21)c1cccs1 | inactive
66 | Cc1cc(C)nc(Nc2ccc(Cl)cc2C)n1 | inconclusive [inhibitor, full curve, poor fit]
67 | CC(C)c1nc(SCC(=O)N2CCN(c3ccccc3)CC2)c2c(=O)n(C)c(=O)n(C)c2n1 | inactive
